Usually pKi stands for the Ki on a negative log10 scale, so that one unit is a factor of ten. As a reminder, the Ki is the dissociation constant of the complex between target and ligand, obtained from inhibition or displacement.

pKi: −log10 of the molar value.

One assay has as its target Recombinant heterodimeric HCV NS3/NS4A protease (strain 1a) (Hepatitis C virus genotype 1a, UniProt P27958). In words: Spectrophotometric assay for HCV protease inhibitory activity (chromogenic ester substrates). The following applies: Table 1, 30° C., pH 6.5, read-out: Binding Activity (Ki rating). It is filed as biochemical, hepatitis C virus (strain 1a). How it is done:
Assay for HCV Protease Inhibitory Activity:
Spectrophotometric Assay: Spectrophotometric assays for the HCV serine protease was performed on the inventive compounds by following the procedure described by R. Zhang et al, Analytical Biochemistry, 270 (1999) 268-275, the disclosure of which is incorporated herein by reference. The assay based on the proteolysis of chromogenic ester substrates is suitable for the continuous monitoring of HCV NS3 protease activity. The substrates were derived from the P side of the NS5A-NS5B junction sequence (Ac-DTEDVVX(Nva), where X=A or P) whose C-terminal carboxyl groups were esterified with one of four different chromophoric alcohols (3- or 4-nitrophenol, 7-hydroxy-4-methyl-coumarin, or 4-phenylazophenol). Presented below are the synthesis, characterization and application of these novel spectrophotometric ester substrates to high throughput screening and detailed kinetic evaluation of HCV NS3 protease inhibitors. Materials and Methods:
Protein concentrations were determined by the Biorad dye method using recombinant HCV protease standards previously quantified by amino acid analysis. Prior to assay initiation, the enzyme storage buffer (50 mM sodium phosphate pH 8.0, 300 mM NaCl, 10% glycerol, 0.05% lauryl maltoside and 10 mM DTT) was exchanged for the assay buffer (25 mM MOPS pH 6.5, 300 mM NaCl, 10% glycerol, 0.05% lauryl maltoside, 5 μM EDTA and 5 μM DTT) utilizing a Biorad Bio-Spin P-6 prepacked column.
Protease Assay: HCV protease assays were performed at 30° C. using a 200 μl reaction mix in a 96-well microtiter plate. Assay buffer conditions (25 mM MOPS pH 6.5, 300 mM NaCl, 10% glycerol, 0.05% lauryl maltoside, 5 μM EDTA and 5 μM DTT) were optimized for the NS3/NS4A heterodimer (D. L. Sali et al, ibid.)). Typically, 150 μl mixtures of buffer, substrate and inhibitor were placed in wells (final concentration of DMSO≦4% v/v) and allowed to preincubate at 30° C. for approximately 3 minutes. Fifty μls of prewarmed protease (12 nM, 30° C.) in assay buffer, was then used to initiate the reaction (final volume 200 μl). The plates were monitored over the length of the assay (60 minutes) for change in absorbance at the appropriate wavelength (340 nm for 3-Np and HMC, 370 nm for PAP, and 400 nm for 4-Np) using a Spectromax Plus microtiter plate reader equipped with a monochrometer (acceptable results can be obtained with plate readers that utilize cutoff filters). Proteolytic cleavage of the ester linkage between the Nva and the chromophore was monitored at the appropriate wavelength against a no enzyme blank as a control for non-enzymatic hydrolysis. The evaluation of substrate kinetic parameters was performed over a 30-fold substrate concentration range (−6-200 μM). Initial velocities were determined using linear regression and kinetic constants were obtained by fitting the data to the Michaelis-Menten equation using non-linear regression analysis (Mac Curve Fit 1.1, K. Raner). Turnover numbers (kcat) were calculated assuming the enzyme was fully active.
Evaluation of Inhibitors and Inactivators: The inhibition constants (Ki*) for the competitive inhibitors Ac-D-(D-Gla)-L-1-(Cha)-C-OH (27), Ac-DTEDVVA(Nva)-OH and Ac-DTEDWP(Nva)-OH were determined experimentally at fixed concentrations of enzyme and substrate by plotting vo/vi vs. inhibitor concentration ([I]o) according to the rearranged Michaelis-Menten equation for competitive inhibition kinetics: vo/vi=1+[I]o/(Ki(1+[S]o/Km)), where vo is the uninhibited initial velocity, vi is the initial velocity in the presence of inhibitor at any given inhibitor concentration ([I]o) and [S]o is the substrate concentration used. The resulting data were fitted using linear regression and the resulting slope, 1/(Ki(1+[S]o/Km), was used to calculate the Ki* value.
For the compound `CC(C)(C)OC(=O)[C@@H](NC(=O)N[C@@H]1C(=O)N2C[C@H]3[C@@H]([C@H]2C(=O)N[C@H](C(=O)C(N)=O)CCCCCCCCCC1(C)C)C3(C)C)C(C)(C)C` [Example 18], the pKi is greater than 7.00.
On the same count and under the same terms, in the case of `CN(C)C(=O)[C@@H](NC(=O)CNC(=O)C(=O)[C@@H]1CCCCC=CCCCC[C@H](NC(=O)OC(C)(C)C)C(=O)N2C[C@H]3[C@@H]([C@H]2C(=O)N1)C3(C)C)c1ccccc1` [Example 1] it was greater than 7.00; in that of `CC(C)(C)OC(=O)N[C@H]1CCCCCCCCCC[C@@H](C(=O)C(N)=O)NC(=O)[C@@H]2[C@@H]3[C@H](CN2C1=O)C3(C)C` [Example 4], greater than 7.00; in that of `CC(C)(C)NC(=O)N[C@@H]1C(=O)N2C[C@H]3[C@@H]([C@H]2C(=O)N[C@H](C(=O)C(N)=O)CCCCCCCCCC1(C)C)C3(C)C` [Example 17], greater than 7.00.
The same measure, in the same setting: in the case of `CC(C)(C)NC(=O)N[C@H]1CCCCCCCCCC[C@@H](C(=O)C(N)=O)NC(=O)[C@@H]2[C@@H]3[C@H](CN2C1=O)C3(C)C` [Example 5] it was greater than 7.00.
As to `C=CCNC(=O)C(=O)[C@@H]1CCCCCCCCC[C@H](NC(=O)NC2(CS(=O)(=O)C(C)(C)C)CCCCC2)C(=O)N2C[C@H]3[C@@H]([C@H]2C(=O)N1)C3(C)C` [Example 27], the pKi was greater than 7.00.
Same read-out and setting: in the case of `CC1(C)[C@@H]2[C@H]3C(=O)N[C@H](C(=O)C(N)=O)CCCCCCCCC[C@H](NC(=O)N[C@H](C(=O)C4CC4)C4CCCCC4)C(=O)N3C[C@@H]21` [Example 21] it was greater than 7.00.
On the same count and under the same terms, then `CC1(C)[C@@H]2[C@H]3C(=O)N[C@H](C(=O)C(N)=O)CCCCCCCCC[C@H](NC(=O)NC4(CS(=O)(=O)C(C)(C)C)CCCCC4)C(=O)N3C[C@@H]21` [Example 28], with greater than 7.00; and `CN(C)C(=O)[C@@H](NC(=O)CNC(=O)C(=O)[C@@H]1CCCCCCCCCC[C@H](NC(=O)OC(C)(C)C)C(=O)N2C[C@H]3[C@@H]([C@H]2C(=O)N1)C3(C)C)c1ccccc1` [Example 2], with greater than 7.00.
On the same count and under the same terms, then `CC(C)(C)OC(=O)[C@@H](NC(=O)N[C@H]1CCCCCCCCCC[C@@H](C(=O)C(N)=O)NC(=O)[C@@H]2[C@@H]3[C@H](CN2C1=O)C3(C)C)C(C)(C)C` [Example 7], with greater than 7.00; and `CC(C)(C)OC(=O)N[C@H]1CCCCCCCCCC[C@@H](C(=O)C(=O)NCC(=O)NCc2ccccc2)NC(=O)[C@@H]2[C@@H]3[C@H](CN2C1=O)C3(C)C` [Example 8], with greater than 7.00.
As to `CN(C)C(=O)[C@@H](NC(=O)CNC(=O)C(=O)[C@@H]1CCCCCCCCCC(C)(C)[C@H](NC(=O)OC(C)(C)C)C(=O)N2C[C@H]3[C@@H]([C@H]2C(=O)N1)C3(C)C)c1ccccc1` [Example 14], the pKi was greater than 7.00.

The same assay, now with this note: Table 2, 30° C., pH 6.5, read-out: Activity Ki* (nM) (rating).
Take `C=CCNC(=O)C(=O)[C@@H]1CCCCCCCCC[C@H](NC(=O)N[C@H](CN(C)S(=O)(=O)N(C)C)C(C)(C)C)C(=O)N2C[C@H]3[C@@H]([C@H]2C(=O)N1)C3(C)C` [Example 47]: the Ki is less than 100 nM.
On the same count and under the same terms, in the case of `CC1(C)[C@@H]2[C@H]3C(=O)N[C@H](C(=O)C(=O)NC4CC4)CCCCCCCOC[C@H](NC(=O)NC4(CS(=O)(=O)C(C)(C)C)CCCCC4)C(=O)N3C[C@@H]21` [Example 62] it was less than 100 nM.
`CCNC(=O)C(=O)[C@@H]1CCCCCCCCC[C@H](NC(=O)OC(C)(C)C)C(=O)N2C[C@H]3[C@@H]([C@H]2C(=O)N1)C3(C)C` [Example 34]: the Ki was less than 100 nM.
With `C=CCNC(=O)C(=O)[C@@H]1CCCCCCCOC[C@H](NC(=O)N[C@H](C(=O)C2CC2)C2CCCCC2)C(=O)N2C[C@H]3[C@@H]([C@H]2C(=O)N1)C3(C)C` [Example 54], the Ki lay in the range of 100 to 1000 nM.
On the same count and under the same terms, then `C=CCNC(=O)C(=O)[C@@H]1CCCCCCCCC[C@H](NC(=O)N[C@H](CN2Cc3sccc3S2(=O)=O)C(C)(C)C)C(=O)N2C[C@H]3[C@@H]([C@H]2C(=O)N1)C3(C)C` [Example 48], with less than 100 nM; and `C[C@@H]1OCCCCCCC[C@@H](C(=O)C(=O)NC2CC2)NC(=O)[C@@H]2[C@@H]3[C@H](CN2C(=O)[C@H]1NC(=O)N[C@H](CN1C(=O)CC(C)(C)CC1=O)C(C)(C)C)C3(C)C` [Example 75], with less than 100 nM.
Take `C=CCNC(=O)C(=O)[C@@H]1CCCCCCCOC[C@H](NC(=O)N[C@H](CN2CCCCC2=O)C(C)(C)C)C(=O)N2C[C@H]3[C@@H]([C@H]2C(=O)N1)C3(C)C` [Example 58]: the Ki is less than 100 nM.
`C=CCNC(=O)C(=O)[C@@H]1CCCCCCCCC[C@H](NC(=O)N[C@H](CN2CCC(C)(C)CC2=O)C(C)(C)C)C(=O)N2C[C@H]3[C@@H]([C@H]2C(=O)N1)C3(C)C` [Example 69]: the Ki is less than 100 nM.
On to `C=CCNC(=O)C(=O)[C@@H]1CCCCCCCO[C@@H](C)[C@H](NC(=O)N[C@H](CN2C(=O)CC(C)(C)CC2=O)C(C)(C)C)C(=O)N2C[C@H]3[C@@H]([C@H]2C(=O)N1)C3(C)C` [Example 65], for which the Ki was less than 100 nM.
Turning to `C=CCNC(=O)C(=O)[C@@H]1CCCCCCCOC[C@H](NC(=O)N[C@H](CN(C)S(=O)(=O)c2cccs2)C(C)(C)C)C(=O)N2C[C@H]3[C@@H]([C@H]2C(=O)N1)C3(C)C` [Example 55], the Ki was less than 100 nM.
`C=CCNC(=O)C(=O)[C@@H]1CCCCCCCOC[C@H](NC(=O)N[C@H](CN2CCC(C)(C)CC2=O)C(C)(C)C)C(=O)N2C[C@H]3[C@@H]([C@H]2C(=O)N1)C3(C)C` [Example 59]: the Ki is less than 100 nM.
Same read-out and setting: then `C=CCNC(=O)C(=O)[C@@H]1CCCCCCCCC[C@H](NC(=O)NC2(Cc3ccccn3)CCCCC2)C(=O)N2C[C@H]3[C@@H]([C@H]2C(=O)N1)C3(C)C` [Example 49], with less than 100 nM; and `CC1(C)CC(=O)N(C[C@@H](NC(=O)N[C@H]2COCCCCCCC[C@@H](C(=O)C(=O)NC3CC3)NC(=O)[C@@H]3[C@@H]4[C@H](CN3C2=O)C4(C)C)C(C)(C)C)C(=O)C1` [Example 60], with less than 100 nM; and `C=CCNC(=O)C(=O)[C@@H]1CCCCCCCOC[C@H](NC(=O)OC(C)(C)C)C(=O)N2C[C@H]3[C@@H]([C@H]2C(=O)N1)C3(C)C` [Example 52], with 100 to 1000 nM.
The same measure, in the same setting: in the case of `C=CCNC(=O)C(=O)[C@@H]1CCCCCCCCC[C@H](NC(=O)N[C@H](CN2C(=O)c3ccccc3C2=O)C(C)(C)C)C(=O)N2C[C@H]3[C@@H]([C@H]2C(=O)N1)C3(C)C` [Example 44] it was less than 100 nM.
Still for that read-out and setting: then `C=CCNC(=O)C(=O)[C@@H]1CCCCCCCOC[C@H](NC(=O)N[C@H](CN2C(=O)CC(C)(C)CC2=O)C(C)(C)C)C(=O)N2C[C@H]3[C@@H]([C@H]2C(=O)N1)C3(C)C` [Example 56], with less than 100 nM.

Still in this assay, the particulars now being: Table 2A, 30° C., pH 6.5, read-out: Binding Activity (Ki rating).
For `CC(C)COC(=O)N[C@H]1CCC2OC2CCCC(C(=O)C(=O)NCC(=O)N[C@H](C(=O)OC(C)(C)C)c2ccccc2)NC(=O)[C@@H]2CCCN2C1=O` (some centres unmarked) [Example 87], the pKi is no more than 6.00.
On to `CC(C)COC(=O)N[C@H]1CCCCCCCC(C(=O)C(=O)NCC(=O)O)NC(=O)[C@@H]2CCCN2C1=O` (some centres unmarked) [Example 86], for which the pKi was no more than 6.00.
For the compound `CN(C)C(=O)[C@@H](NC(=O)CNC(=O)C(=O)[C@@H]1CCCC/C=C/CCCC(C)(C)[C@H](NC(=O)OCc2ccccc2)C(=O)N2C[C@H]3[C@@H]([C@H]2C(=O)N1)C3(C)C)c1ccccc1` [Example 90], the pKi is 6.00 to 7.00.
Same read-out and setting: in the case of `CN(C)C(=O)[C@@H](NC(=O)CNC(=O)C(=O)[C@@H]1CCCCCCCCCC[C@H](N)C(=O)N2C[C@@H]3OC(C)(C)C[C@@H]3[C@H]2C(=O)N1)c1ccccc1` [Example 78] it was no more than 6.00.

Staying with this assay, now noted: Table 3, 30° C., pH 6.5, read-out: Activity Ki*.
As for `C=CCNC(=O)C(=O)[C@@H]1CCCCCCCCC[C@H](NC(=O)NC2(CS(=O)(=O)C(C)(C)C)CCCCC2)C(=O)N2C[C@H]3[C@@H]([C@H]2C(=O)N1)C3(C)C` [Example 27], the pKi was 8.30.
With `CC1(C)[C@@H]2[C@H]3C(=O)N[C@H](C(=O)C(N)=O)CCCCCCCCC[C@H](NC(=O)N[C@H](C(=O)C4CC4)C4CCCCC4)C(=O)N3C[C@@H]21` [Example 21], the pKi is 7.96.
For the compound `CC1(C)[C@@H]2[C@H]3C(=O)N[C@H](C(=O)C(N)=O)CCCCCCCCC[C@H](NC(=O)NC4(CS(=O)(=O)C(C)(C)C)CCCCC4)C(=O)N3C[C@@H]21` [Example 28], the pKi was 8.30.

(Values after patent publication US7592419B2, “Macrocyclic inhibitors of hepatitis C virus NS3-serine protease” (Schering Corporation, priority 2003, dated 2009).)
